From article PMC7435778, “Bidirectional Modulation of the Voltage-Gated Sodium (Nav1.6) Channel by Rationally Designed Peptidomimetics” (Molecules, 2020)
Read-outs that look alike come from different tables or passages of the source. Starred links: 1 amine or outer side, 2 acyl side, 3 side chain; linkers in the order of their positions; H or OH if unused. Residues, ends and D or L forms follow the SMILES beside them. *: point of attachment. Adamantane1carbonyl = O=C(C12CC3CC(CC(C3)C1)C2)*; NH(1-Adamantyl) = C1C2CC3CC1CC(N*)(C2)C3; Cyclohexanecarbonyl = O=C(C1CCCCC1)*; Fmoc = O=C(OCC1c2ccccc2-c2ccccc21)*; Decanoyl = CCCCCCCCCC(=O)*; Cbz = O=C(OCc1ccccc1)*; Boc = CC(C)(C)OC(=O)*; CO = O=C([*:1])[*:2]; Bz = O=C(c1ccccc1)*; OtBu = CC(C)(C)O*; tBu = CC(C)(C)*

Key:
[1] = biological target: T1, FGF14:Nav1.6 complex (Homo sapiens, UniProt Q92915+Q9UQD0); settings: for In-cell activity on FGF14:Nav1.6 complex assembly (in words): LCA screening
[2] = biological target: T1, FGF14:Nav1.6 complex; experiment: cell-based; settings: for activity at 25 µM: 12 h, read-out: LCA (%Lum); for Emax: read-out: EMax (percent luminescence at the top plateau)
[3] = biological target: Nav1.6 C-terminal tail (Homo sapiens, UniProt Q9UQD0)
[4] = biological target: T1, FGF14:Nav1.6 complex; parameters: expressed in transfected cells; settings: cited from earlier work; for IMin: previously reported FLPK analogs, Figure 1A; for IC50: previously reported, read-out: IC50 (inhibition of FGF14:Nav1.6 complex assembly)

Compound: CC(C)[C@H](NC(=O)[C@H](Cc1ccc(OC(C)(C)C)cc1)NC(=O)OCC1c2ccccc2-c2ccccc21)C(N)=O [Compound 10, (9H-fluoren-9-yl)methyl ((S)-1-(((S)-1-amino-3-methyl-1-oxobutan-2-yl)amino)-3-(4-(tert-butoxy)phenyl)-1-oxopropan-2-yl)carbamate] (Fmoc-Tyr(tBu)-Val-NH2)
- In-cell activity on FGF14:Nav1.6 complex assembly (in words) ([1]; 25 µM): loss of activity
- activity at 25 µM [2]: 92.9 ± 2.1%

Compound: CC(C)[C@H](NC(=O)[C@H](Cc1ccc(OC(C)(C)C)cc1)NC(=O)[C@H](Cc1ccc(OC(C)(C)C)cc1)NC(=O)OCC1c2ccccc2-c2ccccc21)C(N)=O [Compound 12, (9H-fluoren-9-yl)methyl ((S)-1-(((S)-1-(((S)-1-amino-3-methyl-1-oxobutan-2-yl)amino)-3-(4-(tert-butoxy)phenyl)-1-oxopropan-2-yl)amino)-3-(4-(tert-butoxy)phenyl)-1-oxopropan-2-yl)carbamate] (Fmoc-Tyr(tBu)-Tyr(tBu)-Val-NH2)
- In-cell activity on FGF14:Nav1.6 complex assembly (in words) ([1]; 25 µM): markedly inhibited FGF14:Nav1.6 complex assembly
- IMin (percent luminescence at the bottom plateau) ([1]; dose response, ± SEM): 18.3 ± 1.2%
- IC50 [2]: 23.7 ± 0.7 µM
- activity at 25 µM [2]: 31.1 ± 2%

Compound: CC(C)[C@H](NC(=O)[C@H](Cc1ccc(OC(C)(C)C)cc1)NC(=O)[C@H](Cc1ccc(OC(C)(C)C)cc1)NC(=O)[C@H](CCC(=O)OC(C)(C)C)NC(=O)OCC1c2ccccc2-c2ccccc21)C(N)=O [Compound 15, tert-butyl (S)-4-((((9H-fluoren-9-yl)methoxy)carbonyl)amino)-5-(((S)-1-(((S)-1-(((S)-1-amino-3-methyl-1-oxobutan-2-yl)amino)-3-(4-(tert-butoxy)phenyl)-1-oxopropan-2-yl)amino)-3-(4-(tert-butoxy)phenyl)-1-oxopropan-2-yl)amino)-5-oxopentanoate] (Fmoc-E(OtBu)Y(tBu)Y(tBu)V-NH2)
- In-cell activity on FGF14:Nav1.6 complex assembly (in words) ([1]; 25 µM): significant loss of in-cell activity
- activity at 25 µM [2]: 109 ± 2.5%

Compound: COC(=O)[C@@H](NC(=O)[C@H](Cc1ccc(OC(C)(C)C)cc1)NC(=O)[C@H](Cc1ccc(OC(C)(C)C)cc1)NC(=O)[C@H](CCC(=O)OC(C)(C)C)NC(=O)OCC1c2ccccc2-c2ccccc21)C(C)C [Compound 16, methyl (5S,8S,11S,14S)-5-(3-(tert-butoxy)-3-oxopropyl)-8,11-bis(4-(tert-butoxy)benzyl)-1-(9H-fluoren-9-yl)-14-isopropyl-3,6,9,12-tetraoxo-2-oxa-4,7,10,13-tetraazapentadecan-15-oate] (Fmoc-E(OtBu)Y(tBu)Y(tBu)V-OMe)
- In-cell activity on FGF14:Nav1.6 complex assembly (in words) ([1]; 25 µM): complete loss of in-cell activity
- activity at 25 µM [2]: 102 ± 2%

Compound: CC(=O)N[C@@H](CCC(=O)OC(C)(C)C)C(=O)N[C@@H](Cc1ccc(OC(C)(C)C)cc1)C(=O)N[C@@H](Cc1ccc(OC(C)(C)C)cc1)C(=O)N[C@H](C(N)=O)C(C)C [Compound 17, tert-butyl (S)-4-acetamido-5-(((S)-1-(((S)-1-(((S)-1-amino-3-methyl-1-oxobutan-2-yl)amino)-3-(4-(tert-butoxy)phenyl)-1-oxopropan-2-yl)amino)-3-(4-(tert-butoxy)phenyl)-1-oxopropan-2-yl)amino)-5-oxopentanoate] (Ac-E(OtBu)Y(tBu)Y(tBu)V-NH2)
- In-cell activity on FGF14:Nav1.6 complex assembly (in words) ([1]; 25 µM): markedly potentiated assembly of the FGF14:Nav1.6 complex
- EC50 [2]: 12.5 µM
- activity at 25 µM [2]: 128 ± 2.6%
- Emax [2]: 153 ± 3.5%

Compound: COC(=O)[C@@H](NC(=O)[C@H](Cc1ccc(OC(C)(C)C)cc1)NC(=O)[C@H](Cc1ccc(OC(C)(C)C)cc1)NC(=O)[C@H](CCC(=O)OC(C)(C)C)NC(C)=O)C(C)C [Compound 18, methyl (2S,5S,8S,11S)-11-(3-(tert-butoxy)-3-oxopropyl)-5,8-bis(4-(tert-butoxy)benzyl)-2-isopropyl-4,7,10,13-tetraoxo-3,6,9,12-tetraazatetradecanoate] (Ac-E(OtBu)Y(tBu)Y(tBu)V-OMe)
- In-cell activity on FGF14:Nav1.6 complex assembly (in words) ([1]; 25 µM): complete loss of in-cell activity
- activity at 25 µM [2]: 104 ± 1.3%

Compound: CC(C)[C@H](NC(=O)[C@H](Cc1ccc(OC(C)(C)C)cc1)NC(=O)[C@H](Cc1ccc(OC(C)(C)C)cc1)NC(=O)[C@H](CCC(=O)OC(C)(C)C)NC(=O)c1ccccc1)C(N)=O [Compound 19, tert-butyl (S)-5-(((S)-1-(((S)-1-(((S)-1-amino-3-methyl-1-oxobutan-2-yl)amino)-3-(4-(tert-butoxy)phenyl)-1-oxopropan-2-yl)amino)-3-(4-(tert-butoxy)phenyl)-1-oxopropan-2-yl)amino)-4-benzamido-5-oxopentanoate] (Bz-E(OtBu)Y(tBu)Y(tBu)V-NH2)
- Fold greater binding affinity toward Nav1.6 ([3]; 19 compared to 12 and 17): about 4 fold
- Fold increase in binding to Nav1.6 ([3]; 19 relative to 17 (Ac to benzoyl)): 4 fold
- koff Nav1.6 ([3]; SPR, Langmuir 1:1 model): 0.015 s⁻¹
- EC50 [2]: 24.5 ± 1.7 µM
- activity at 25 µM [2]: 132 ± 1.9%
- Emax [2]: 192 ± 3.2%

Compound: CC(C)[C@H](NC(=O)[C@H](Cc1ccc(OC(C)(C)C)cc1)NC(=O)[C@H](Cc1ccc(OC(C)(C)C)cc1)NC(=O)[C@H](CCC(=O)OC(C)(C)C)NC(=O)NC12CC3CC(CC(C3)C1)C2)C(N)=O [Compound 20, tert-Butyl (S)-4-(3-((3R,5R,7R)-adamantan-1-yl)ureido)-5-(((S)-1-(((S)-1-(((S)-1-amino-3-methyl-1-oxobutan-2-yl)amino)-3-(4-(tert-butoxy)phenyl)-1-oxopropan-2-yl)amino)-3-(4-(tert-butoxy)phenyl)-1-oxopropan-2-yl)amino)-5-oxopentanoate] ({NH(1-Adamantyl)-CO}-E(OtBu)Y(tBu)Y(tBu)V-NH2)
- In-cell activity on FGF14:Nav1.6 complex assembly (in words) ([1]; 25 µM): abrogated in-cell activity
- activity at 25 µM [2]: 95.3 ± 3.4%

Compound: CC(C)[C@H](NC(=O)[C@H](Cc1ccc(OC(C)(C)C)cc1)NC(=O)[C@H](Cc1ccc(OC(C)(C)C)cc1)NC(=O)[C@H](CCC(=O)OC(C)(C)C)NC(=O)C12CC3CC(CC(C3)C1)C2)C(N)=O [Compound 21, tert-Butyl (4S)-4-((1S,3R,5S)-adamantane-1-carboxamido)-5-(((S)-1-(((S)-1-(((S)-1-amino-3-methyl-1-oxobutan-2-yl)amino)-3-(4-(tert-butoxy)phenyl)-1-oxopropan-2-yl)amino)-3-(4-(tert-butoxy)phenyl)-1-oxopropan-2-yl)amino)-5-oxopentanoate] (Adamantane1carbonyl-E(OtBu)Y(tBu)Y(tBu)V-NH2)
- In-cell activity on FGF14:Nav1.6 complex assembly (in words) ([1]; 25 µM): abrogated in-cell activity
- activity at 25 µM [2]: 101 ± 2.2%

Compound: CCCCCCCCCC(=O)N[C@@H](CCC(=O)OC(C)(C)C)C(=O)N[C@@H](Cc1ccc(OC(C)(C)C)cc1)C(=O)N[C@@H](Cc1ccc(OC(C)(C)C)cc1)C(=O)N[C@H](C(N)=O)C(C)C [Compound 22, tert-Butyl (S)-5-(((S)-1-(((S)-1-(((S)-1-amino-3-methyl-1-oxobutan-2-yl)amino)-3-(4-(tert-butoxy)phenyl)-1-oxopropan-2-yl)amino)-3-(4-(tert-butoxy)phenyl)-1-oxopropan-2-yl)amino)-4-decanamido-5-oxopentanoate] (Decanoyl-E(OtBu)Y(tBu)Y(tBu)V-NH2)
- In-cell activity on FGF14:Nav1.6 complex assembly (in words) ([1]; 25 µM): retained activity
- EC50 [2]: 47.5 ± 10.6 µM
- activity at 25 µM [2]: 123 ± 2.8%
- Emax [2]: 163 ± 6.5%

Compound: CC(C)[C@H](NC(=O)[C@H](Cc1ccc(OC(C)(C)C)cc1)NC(=O)[C@H](Cc1ccc(OC(C)(C)C)cc1)NC(=O)[C@H](CCC(=O)OC(C)(C)C)NC(=O)C1CCCCC1)C(N)=O [Compound 23, tert-Butyl (S)-5-(((S)-1-(((S)-1-(((S)-1-amino-3-methyl-1-oxobutan-2-yl)amino)-3-(4-(tert-butoxy)phenyl)-1-oxopropan-2-yl)amino)-3-(4-(tert-butoxy)phenyl)-1-oxopropan-2-yl)amino)-4-(cyclohexanecarboxamido)-5-oxopentanoate] (Cyclohexanecarbonyl-E(OtBu)Y(tBu)Y(tBu)V-NH2)
- activity at 25 µM [2]: 93.8 ± 3.3%

Compound: CC(C)C[C@H](NC(=O)[C@H](Cc1ccccc1)NC(=O)OCc1ccccc1)C(=O)N1CCC[C@H]1C(=O)N[C@@H](CCCCNC(=O)OC(C)(C)C)C(N)=O [ZL0177] (Cbz-FLPK(Boc)-NH2)
- IMin [4]: 7%
- IC50 [4]: 11 µM

Compound: COC(=O)[C@H](CCCCNC(=O)OCC1c2ccccc2-c2ccccc21)NC(=O)[C@@H]1CCCN1C(=O)[C@H](CC(C)C)NC(=O)[C@H](Cc1ccccc1)NC(C)=O [ZL181] (Ac-FLPK(Fmoc)-OMe)
- IMin [4]: 26%
- IC50 [4]: 63 µM

Compound: tert-Butyl (S)-5-(((S)-1-(((S)-1-(((S)-1-amino-3-methyl-1-oxobutan-2-yl)amino)-3-(4-(tert-butoxy)phenyl)-1-oxopropan-2-yl)amino)-3-(4-(tert-butoxy)phenyl)-1-oxopropan-2-yl)amino)-4-(((benzyloxy)carbonyl)amino)-5-oxopentanoate [Compound 24]
- LCA (%Lum) ([1]; 25 µM, 12 h, percent luminescence relative to per plate 0.5% DMSO controls, mean ± SEM): 111.5 ± 2.5%
- In-cell activity on FGF14:Nav1.6 complex assembly (in words) ([1]; 25 µM): retained activity
